Data from paper PMC12136788.
The list shows a part of the results.

B1: 80643647_80643767_1968_CDS_ENSMUSG00000034994_ENSMUST00000047864|mouse|control|control (ssRNA)
RNA: GGGAGUUCUACAGUCCGACGAUCAGCAACGUCCCACUCAUACUUUUCGGCCAGGUAGCGGGCACGUGCCUUGAGCUCCUGGCGGGCAGACACCUCACCCUUAUCGAUGUCCUCUGCCAGGCCAUCAGGGAAGGGCCUGGCCUUCAACAGAGGAUUGAGCAUCA
B2: chr4:43015417:43015418:-_ENSMUSG00000028453_ENSMUST00000030165|mus_mus|FALSE|FALSE (ssRNA)
RNA: GGGAGUUCUACAGUCCGACGAUCAAAGGGUAGGAAUGGGGAUUUUUAUGAGGAACUGCAGUUUAGUCCCCAGAAUCCAACCUACCAAAAAGACAAUGGGAAGGAAGGGGGAGUUAGGGAGACAGGGAAGGCAGACAGAAGACGCAACAGAGGAUUGAGCAUCA
B3: chr2:175094126:175094127:-_ENSG00000138430_ENST00000344357|hu_hu|FALSE|FALSE (ssRNA)
RNA: GGGAGUUCUACAGUCCGACGAUCUCUGCUCUCAUUAGGAUCAAUAGUGCAGAACGGGAAGUUUUCUGCUGAAGCCUGACUAUUGGUUAACACAUUGAAGAAAGUAGAUUUCCGUGCUCGGCCUGGGCGAUGACACGGGGUCCCCAACAGAGGAUUGAGCAUCA
B4: chr12:39763582:39763583:-_ENSG00000139116_ENST00000544797|hu_mus|hu_hu_hu_mus_False|18_48 (ssRNA)
RNA: GGGAGUUCUACAGUCCGACGAUCCUCUAGGAACUGGGCAUUCACUUUGAAUUCAGGAGGGGGCAGCCCGUUUUUAAUCGCUGAGGUUUUUUUUUCUUCAAUACUCUUGAACAGGUGUUUAACAGCUCGAGAGAUGAUGCCCUGCAACAGAGGAUUGAGCAUCA
B5: 32340806_32341209_1091_CDS_ENSG00000021574_ENST00000315285|human|control|control (ssRNA)
RNA: GGGAGUUCUACAGUCCGACGAUCAUCAAAUUUAACAGCUGUUCCAUUGUCCACAAUUUCAUUCAUUAUAAGGUUAGCAAGGUUGCUGUCCACAUUCCUAAAAUUCUUCAAGUCUUUUUUCUUACGAGUAGCAGUUGUAGGGGUCAACAGAGGAUUGAGCAUCA
B6: chr7:23239867:23239868:+_ENSG00000136243_ENST00000258742|hu_hu|motif|central (ssRNA)
RNA: GGGAGUUCUACAGUCCGACGAUCCCCAAAACCAGCAGGGCUUCCAGAAGAGGCAGCAGCAAAUCCAGAGUUUGUUUUAAAACGGAAGUUCUGAGCAUUAUCACUGCUGCUGUUAUUGACUGGAAAGCCUGGCGACAUAAAUGUCAACAGAGGAUUGAGCAUCA
B7: chr11:29607782:29607783:+_ENSMUSG00000020458_ENSMUST00000102843|mus_mus|FALSE|FALSE (ssRNA)
RNA: GGGAGUUCUACAGUCCGACGAUCUGCAUUAAAACUUUCAGGCUCUUUAAUUUCUUCCUUUGAGUCCGAUGUUUUUAGUGCUACACUCAUGGCUUCUUCAUAUGGUGGGGGAUUUUCAGGCUCAAGCUUUAUACCGUCAUAACUCAACAGAGGAUUGAGCAUCA
B8: chr6:31700055:31700056:-_ENSG00000213719_ENST00000375779|hu_mus|FALSE|FALSE (ssRNA)
RNA: GGGAGUUCUACAGUCCGACGAUCUCCACGGAAUGCCUCUGGGAUGGUGAAGCCUCUGUACUUUUUGCACACCACCUGUACUAUGUGAAGCUUUGGCAGCAGGUUGCAGUCAGCCAGGGUGAGCUCAUUGCCGUCCAGAAACUUCAACAGAGGAUUGAGCAUCA
B9: chr12:42180722:42180723:-_ENSMUSG00000036295_ENSMUST00000043884|mus_hu|mus_mus_mus_hu_True|48_58 (ssRNA)
RNA: GGGAGUUCUACAGUCCGACGAUCCUGUAGGAGAAGAAUCUGUGUGUUAGCUGGCAAUCUGGCUGGGAAAGUUAAAAGCCCUAAAUCAUUACAGUCCACUGUAGAUGCUUCCAUAUAAAUGGAUCUGGGUGUAAACCAAGGCCUCAACAGAGGAUUGAGCAUCA
B10: chr1:109605286:109605287:-_ENSG00000197780_ENST00000461096|hu_mus|hu_hu_hu_mus_True|38_108 (ssRNA)
RNA: GGGAGUUCUACAGUCCGACGAUCAAGAACAAUAACAACAUUCAGUAACCUCUUUAAAUGCAAUUAUCCUUAUUAUAAGCUAAGCAGAAUAAUAAUUUAAUACAUAGAGUGAACUACACACAAAGCCUGAACCGCGAAAAUGGUCAACAGAGGAUUGAGCAUCA
B11: 103707702_103709362_1908_CDS_ENSMUSG00000034187_ENSMUST00000103075|mouse|control|control (ssRNA)
RNA: GGGAGUUCUACAGUCCGACGAUCUUUCAGUAACACAAGAAGAGCCUGCAAUACCAGGUUGGAGAACCGGGGACCAAUGGGGACAUAAUCGAGCAGCCUCUCAAUGUCAUCCACGACCACACAGCUGAGCUGAGAUUUGUAAGCCAACAGAGGAUUGAGCAUCA
B12: chr14:89338683:89338684:+_ENSG00000165533_ENST00000346301|hu_hu|hu_hu_hu_mus_False|48_98 (ssRNA)
RNA: GGGAGUUCUACAGUCCGACGAUCGUGGUUGUUGUGGACCAGAGCCAGCCUGAAGCAUUGGUGGGCCAAGUUUGUAUCUCCGAUUCCCACAGCUACAUGCCCCAGGUUGUACCAGACAUCAGCUGCCUCUUCUUCAUUUUCAGCCAACAGAGGAUUGAGCAUCA
B13: 15870588_15872871_243_3pUTR_ENSG00000182287_ENST00000329235|human|control|control (ssRNA)
RNA: GGGAGUUCUACAGUCCGACGAUCACAUACCAUUUUUGCAGUCGAAGCUUUCCCUGACGACUAAAAAGCAACAUAAACUGCAUGGCGGCCGCGGGCCGCGGGCGCGGCGGAGCUUGGCCGGCGGCGGCGGCGGCGGCGAAGGGGCAACAGAGGAUUGAGCAUCA
B14: chr9:122289238:122289239:+_ENSMUSG00000032540_ENSMUST00000156520|mus_mus|FALSE|FALSE (ssRNA)
RNA: GGGAGUUCUACAGUCCGACGAUCUCCUGUCUUUUACAUCAAAACCUAACCCUUUCGUUCCAUUUCAAAAUGAAAUAUUCUAAACUCCAUCUCAAAAAUGAAGUAUUCUAAAUUGAAAUCUUUUUACAUAAAAAUACUUGGGUUCAACAGAGGAUUGAGCAUCA
B15: chr10:44834900:44834901:+_ENSMUSG00000019849_ENSMUST00000099858|mus_hu|FALSE|FALSE (ssRNA)
RNA: GGGAGUUCUACAGUCCGACGAUCGAAUGUGAACACCGUCCCCUCAUUGGUCACGUAGUCAUAUUCCCCUUCAAAGUUGUCAAUCAGUUUUACCCACUUCAGGAUUCCCGCGAUGCCACUGGAUUCCUGCUGUAGGUCACAGUACAACAGAGGAUUGAGCAUCA
B16: chr13:100201205:100201206:-_ENSMUSG00000052727_ENSMUST00000064762|mus_mus|motif|central (ssRNA)
RNA: GGGAGUUCUACAGUCCGACGAUCUUCAGUGAUAUGAAGCACACUGGCACCCAGAGUAGGGUGAUCUGGAGACUGCCGACGGAAGUCCAUAGCAAGAGAAUGCUCAGGGGAUUCCUGGCCGAACUCAAUAGACAUAGAAGACUGCAACAGAGGAUUGAGCAUCA
B17: chr6:40197388:40197389:+_ENSMUSG00000057716_ENSMUST00000061740|mus_mus|mus_mus_mus_hu_False|18_68 (ssRNA)
RNA: GGGAGUUCUACAGUCCGACGAUCGAGACACUGGGGUGGAUUUAUUCCACCUCUGUUUGGGUGCUAGUAAGAUAGAUUGUUAUUUUGGGAUUCAUGGCCUUGAAUAUCAAGAGGGAAGGGACGAGAAUGGAAAGAGUCAAGAGUCAACAGAGGAUUGAGCAUCA
B18: chr12:39756943:39756944:-_ENSG00000139116_ENST00000544797|hu_mus|hu_hu_hu_mus_False|38_58 (ssRNA)
RNA: GGGAGUUCUACAGUCCGACGAUCGGUUUGGCUGUUACCCCCAAGGGAAUCCUGCAAGAGUCUUGUCAGCUUAGAGUCUCUAUAGGGGACAUGGGUGGCCCUCUUGCUCUUGUCCCCCAAGGCGCUGAUUACAUUCCCAAGAGCCAACAGAGGAUUGAGCAUCA
B19: 108217923_108218043_487_3pUTR_ENSMUSG00000068740_ENSMUST00000090558|mouse|control|control (ssRNA)
RNA: GGGAGUUCUACAGUCCGACGAUCUGGUGAGCCUUCCCCAGCCCUGAGCCCUGGGGCCUGUGCCAGCUUGCAAGACUGGCAUCUGAGCCGUGGGGCCUUUAAGCAAGGGUGCUCUUCAGGCAGGGUCAGCGUGCCUUGUGGAGACAACAGAGGAUUGAGCAUCA
B20: 56335018_56335961_14662_CDS_ENSG00000151914_ENST00000244364|human|control|control (ssRNA)
RNA: GGGAGUUCUACAGUCCGACGAUCAUCGCCAUCUCUGUCAAAGAUGUCUGCAACUGCGCUCAUCUCCAAGCGACUGGUUGGAAACUUUGAGGAAAGAAUUCCAUCAAUAAAUUCCUGCCGCGUUAUUUUCCCAUCCUGGUCUUUCAACAGAGGAUUGAGCAUCA
B21: chr17:55757426:55757427:+_ENSG00000153944_ENST00000284073|hu_hu|motif|central (ssRNA)
RNA: GGGAGUUCUACAGUCCGACGAUCAGAAAGCUCACGCCCACCUCCCGCCCUGCACUUCACAACUUUGCUUCAGUGUGUGCGGAAGUUCCACCUGAAAAUUCAUACAGUCUCAGAAUUGGUACCAAAAUAUGGAGAGUCAUAUUACAACAGAGGAUUGAGCAUCA
B22: 79742064_79742518_3684_CDS_ENSG00000148606_ENST00000372371|human|control|control (ssRNA)
RNA: GGGAGUUCUACAGUCCGACGAUCCUGCACCACCACCUUGGGGAGAUCCUCUUUCAGGAACUGCAGCACGUAGUACAUGGAGCUCUUGCUGUUCUCUCUGGGGGUGACACACACCACAGCCUCACCAUGAACAGCCACAUCACCCAACAGAGGAUUGAGCAUCA

Target: T1, UNK ZnF1-3 (human, UniProt Q9C0B0 31-174)
T1 sequence: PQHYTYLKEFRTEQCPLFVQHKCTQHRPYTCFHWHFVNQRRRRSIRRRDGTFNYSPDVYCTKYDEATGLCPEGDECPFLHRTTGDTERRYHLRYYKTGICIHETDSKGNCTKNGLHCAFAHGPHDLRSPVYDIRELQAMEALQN
Assay: nsRBNS (natural sequence RNA bind-n-seq); RBNS binding buffer (assumed for nsRBNS): 25 mM Tris pH 7.5, 150 mM KCl, 3 mM MgCl2, 0.01% Triton X-100, 500 ug/ml BSA, 20 U/ml SUPERase-In, 4 C; UNK is unkempt and MSI1 is Musashi-1; names of the RNAs are library labels; protein concentration not given here; high values mean tight binding

Binder | binding signal [enrichment R]
B1 | 0.561
B2 | 1.43
B3 | 1.03
B4 | 1.76
B5 | 1.24
B6 | 1.3
B7 | 0.56
B8 | 0.795
B9 | 1.12
B10 | 1
B11 | 1.32
B12 | 0.7
B13 | 0.531
B14 | 1.2
B15 | 0.433
B16 | 1.32
B17 | 1.32
B18 | 0.865
B19 | 0.498
B20 | 0.98
B21 | 1.3
B22 | 0.866
